The other results are listed elsewhere or left out. Single values are uncertain, as repeats are few or missing.
What was measured:
[1] = system: IMR-32; assay: drug sensitivity score (DSS), single drug with vehicle (DSS (score)); higher = more cytotoxic; extreme values may be limits of the assay; conditions: 72 h; co-treatment: vehicle (DMSO)
[2] = system: SK-N-AS; assay: as above; conditions: 72 h; co-treatment: vehicle (DMSO)
[3] = system: SK-N-AS; assay: drug sensitivity score (DSS) in combination with SL-176 (DSS (score)); higher = more cytotoxic; extreme values may be limits of the assay; conditions: 72 h; co-treatment: SL-176 11.2 uM (IC25 in IMR-32)
[4] = system: IMR-32; assay: as above; conditions: 72 h; co-treatment: SL-176 11.2 uM (IC25 in IMR-32)
[5] = system: SK-N-AS; assay: drug sensitivity score (DSS) in combination with GSK2830371 (DSS (score)); neuroblastoma lines; SL-176 and GSK2830371 are WIP1 inhibitors; higher = more cytotoxic; extreme values may be limits of the assay; conditions: 72 h; co-treatment: GSK2830371 at IC25 in IMR-32
[6] = system: IMR-32; assay: as above; conditions: 72 h; co-treatment: GSK2830371 at IC25 in IMR-32
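For drug sensitivity score (DSS) in combination with GSK2830371 in this document: neuroblastoma cells in 384-well plates, each compound at five concentrations, luminescence read-out, DSS derived from fitted concentration-response curve combining IC50 with minimum and maximum inhibition.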
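For drug sensitivity score (DSS) in combination with SL-176 in this document: cells in 384-well plates, luminescence read-out, each screening drug at five concentrations, DSS derived from the fitted concentration-response curve combining IC50 with minimum and maximum inhibition.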
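For drug sensitivity score (DSS), single drug with vehicle in this document: 384-well screen with five concentrations per compound and a luminescence read-out, DSS computed from the fitted dose-response curve combining IC50 with minimum and maximum inhibition.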

| Structure (SMILES) | drug sensitivity score [1] | drug sensitivity score [2] | drug sensitivity score [3] | drug sensitivity score [4] | drug sensitivity score [5] | drug sensitivity score [6] |
| --- | --- | --- | --- | --- | --- | --- |
| Nc1ncnc2c1nc(N)n2[C@@H]1O[C@H](CO)[C@@H](O)[C@H]1O [8-amino-adenosine] | 21.7 | 25.8 | 25.1 | 21.3 | 25.6 | 22.3 |
| COc1ccc(C[C@H](NC(=O)[C@H](C)NC(=O)CN2CCOCC2)C(=O)N[C@@H](Cc2ccccc2)C(=O)C2(C)CO2)cc1 (stereo in doubt) | 17.8 | 19.7 | 20.1 | 21.1 | 19.7 | 17.1 |
| C=CC(=O)Nc1cccc(Nc2nc(Nc3ccc(N4CCN(C(C)=O)CC4)cc3OC)ncc2C(F)(F)F)c1 [Rociletinib] | 9 | 6.6 | 7 | 7.8 | 7.4 | 6.1 |
| CC(C)C(=O)Nc1ccc([N+](=O)[O-])c(C(F)(F)F)c1 [Flutamide] | 0 | 0 | 0 | 1.9 | 0 | 2.1 |
| NS(=O)(=O)OC[C@@H]1C[C@@H](n2ccc3c(N[C@H]4CCc5ccccc54)ncnc32)C[C@@H]1O [Pevonedistat] | 26.4 | 7.4 | 8.6 | 26 | 9.5 | 29.8 |
| Nc1nc(Cl)nc2c1ncn2[C@@H]1O[C@H](CO)[C@@H](O)[C@@H]1F [Clofarabine] | 33.4 | 14.6 | 13.1 | 32.5 | 14 | 33.8 |
| Cc1nc(=O)c2cc(CN(C)c3ccc(C(=O)N[C@@H](CCC(=O)O)C(=O)O)s3)ccc2[nH]1 [Raltitrexed] | 20.1 | 1.9 | 2.5 | 15 | 2.2 | 21.2 |
| Cc1ccc(C(=O)Nc2cccc(C(F)(F)F)c2)cc1Nc1nc(-c2cccnc2)nc2c1cnn2C | 8.1 | 8.2 | 7.8 | 5.2 | 8.4 | 6.8 |
| Cc1nc(Nc2n[nH]c3c2CN(C(=O)N[C@H](CN(C)C)c2ccccc2)C3(C)C)c2sccc2n1 | 25.6 | 22.3 | 22.4 | 26.9 | 21.8 | 34.1 |
| Cc1noc2c1-c1ccccc1C(c1ccc(Cl)cc1)=N[C@H]2CC(N)=O | 7.1 | 7.1 | 8 | 8.6 | 6.6 | 11 |
| NCC(=O)Nc1ccc(-n2nc(C(F)(F)F)cc2-c2ccc3c(ccc4ccccc43)c2)cc1 | 19.3 | 0 | 0 | 13.9 | 0 | 20.8 |
| O=C1NC(=O)[C@@H](c2cn3c4c(cccc24)CCC3)[C@@H]1c1c[nH]c2ccccc12 [Tivantinib] | 9.1 | 9 | 8.2 | 9.7 | 8.4 | 10 |
| O=C(NC1CCNCC1)c1n[nH]cc1NC(=O)c1c(Cl)cccc1Cl | 18.1 | 14.8 | 15.4 | 17.5 | 15.3 | 20.2 |
| Nc1cc(F)ccc1NC(=O)/C=C/c1cnn(C/C=C/c2ccccc2)c1 | 7.3 | 4 | 3.9 | 5.5 | 3.6 | 9.3 |
| CC1(C)CCC(CN2CCN(c3ccc(C(=O)NS(=O)(=O)c4ccc(NCC5CCOCC5)c([N+](=O)[O-])c4)c(Oc4cnc5[nH]ccc5c4)c3)CC2)=C(c2ccc(Cl)cc2)C1 [Venetoclax] | 5.8 | 0 | 0 | 5.8 | 0 | 8.3 |
| CO[C@H]1C[C@@H]2CC[C@@H](C)[C@@](O)(O2)C(=O)C(=O)N2CCCC[C@H]2C(=O)O[C@H]([C@H](C)C[C@@H]2CC[C@@H](OCCO)[C@H](OC)C2)CC(=O)[C@H](C)/C=C(\C)[C@@H](O)[C@@H](OC)C(=O)[C@H](C)C[C@H](C)/C=C/C=C/C=C/1C [Everolimus] | 9.1 | 8.8 | 6.3 | 4.4 | 8.2 | 8 |
| COc1ncc(-c2ccc3nccc(-c4ccnnc4)c3c2)cc1NS(=O)(=O)c1ccc(F)cc1F [Omipalisib] | 12.3 | 16 | 15.6 | 14 | 15.5 | 17.7 |
| CC[C@H](C)C(=O)O[C@H]1C[C@H](O)C=C2C=C[C@H](C)[C@H](CC[C@@H](O)C[C@@H](O)CC(=O)O)[C@H]21 [Pravastatin] | 0 | 0 | 0 | 0 | 0 | 0 |
| COc1cc(Nc2ncc3c(n2)-c2ccc(Cl)cc2C(c2c(F)cccc2OC)=NC3)ccc1C(=O)O [Alisertib] | 34.3 | 13.7 | 11.1 | 35.3 | 13.5 | 35.3 |
| C#Cc1cccc(Nc2ncnc3cc4c(cc23)OCCOCCOCCO4)c1 [Icotinib] | 0.1 | 0.2 | 0.5 | 0 | 0.1 | 0 |
